Legend:
Format in all cases: cell-based
Herpesvirus (HSV-1) = experiment: Virus yield, Herpesvirus (HSV-1) in Hep-2 cells
Adenovirus (Ad5) = experiment: Virus yield, Adenovirus (Ad5) in HeLa R19 cells
Rhinovirus (RHV-2) = experiment: Virus yield, Rhinovirus (RHV-2) in HeLa R19 cells
Influenza A (PR8) = tested on: Influenza A (PR8)
[1] = tested on: Paramyxovirus (Sendai virus); experiment: Virus yield, Paramyxovirus (Sendai virus) in 37RC cells
Rotavirus (Simian SA11) = experiment: Virus yield, Rotavirus (Simian SA11) in MA104 cells
Rotavirus (WAG8P1) = experiment: Virus yield, Rotavirus (WAG8P1) in MA104 cells
Coronavirus (CCoV) = experiment: Virus yield, Coronavirus (CCoV) in A72 cells
[2] = tested on: Respiratory Syncytial Virus (RV-A2); experiment: Virus yield, Respiratory Syncytial Virus (RV-A2) in HeLa cells
Rhabdovirus (VSV) = details: MA104 cells

SMILES: CC(=O)Oc1ccccc1C(=O)Nc1ncc(C(F)(F)F)s1 [Compound 1]
- Virus Yield ID50 (Herpesvirus (HSV-1)): 0.2 µg/mL
- Virus Yield ID90 (Herpesvirus (HSV-1)): 2 µg/mL
- Virus Yield ID50 (Adenovirus (Ad5)): 0.1 µg/mL
- Virus Yield ID90 (Adenovirus (Ad5)): 3.5 µg/mL
- Virus Yield ID50 (Rhinovirus (RHV-2)): 9 µg/mL
- Virus Yield ID90 (Rhinovirus (RHV-2)): >50 µg/mL

SMILES: CC(=O)Oc1ccccc1C(=O)Nc1nc(C(F)(F)F)cs1 [Compound 3]
- Virus Yield ID50 (Herpesvirus (HSV-1)): 0.03 µg/mL
- Virus Yield ID90 (Herpesvirus (HSV-1)): 1.5 µg/mL

SMILES: O=C(Nc1nc(C(F)(F)F)cs1)c1ccccc1O [Compound 4]
- Virus Yield ID50 (Herpesvirus (HSV-1)): 0.15 µg/mL
- Virus Yield ID90 (Herpesvirus (HSV-1)): 1.5 µg/mL

SMILES: CC(=O)Oc1ccccc1C(=O)Nc1nnc(C(F)(F)F)s1 [Compound 5]
- Virus Yield ID50 (Influenza A (PR8)): 3 µg/mL
- Virus Yield ID90 (Influenza A (PR8)): 9 µg/mL
- Virus Yield ID50 [1]: 3 µg/mL
- Virus Yield ID90 [1]: 9 µg/mL

SMILES: O=C(Nc1nnc(C(F)(F)F)s1)c1ccccc1O [Compound 6]
- Virus Yield ID50 (Herpesvirus (HSV-1)): 0.2 µg/mL
- Virus Yield ID90 (Herpesvirus (HSV-1)): 1 µg/mL

SMILES: CC(=O)Oc1ccccc1C(=O)Nc1ncc([N+](=O)[O-])s1 [Nitazoxanide]
- Virus Yield ID50 (Rotavirus (Simian SA11)): 1 µg/mL
- Virus Yield ID90 (Rotavirus (Simian SA11)): 10 µg/mL
- Virus Yield ID50 (Herpesvirus (HSV-1)): 0.025 µg/mL
- Virus Yield ID90 (Herpesvirus (HSV-1)): 0.5 µg/mL
- Virus Yield ID50 (Adenovirus (Ad5)): 1.5 µg/mL
- Virus Yield ID90 (Adenovirus (Ad5)): 15 µg/mL
- Virus Yield ID50 (Rotavirus (WAG8P1)): 10 µg/mL
- Virus Yield ID90 (Rotavirus (WAG8P1)): 40 µg/mL
- Virus Yield ID50 (Influenza A (PR8)): 1 µg/mL
- Virus Yield ID90 (Influenza A (PR8)): 7 µg/mL
- Virus Yield ID50 (Rhinovirus (RHV-2)): 2.5 µg/mL
- Virus Yield ID90 (Rhinovirus (RHV-2)): >50 µg/mL
- Virus Yield ID50 [1]: 1 µg/mL
- Virus Yield ID90 [1]: 6 µg/mL

SMILES: O=C(Nc1ncc([N+](=O)[O-])s1)c1ccccc1O [Tizoxanide]
- Virus Yield ID50 (Coronavirus (CCoV)): 1 µg/mL
- Virus Yield ID90 (Coronavirus (CCoV)): 1.5 µg/mL
- Virus Yield ID50 (Rotavirus (Simian SA11)): 0.5 µg/mL
- Virus Yield ID90 (Rotavirus (Simian SA11)): 4 µg/mL
- Virus Yield ID50 [2]: 0.5 µg/mL
- Virus Yield ID50 (Herpesvirus (HSV-1)): 2 µg/mL
- Virus Yield ID90 (Herpesvirus (HSV-1)): 5 µg/mL
- Virus Yield ID50 (Rhabdovirus (VSV)): 2 µg/mL
- Virus Yield ID90 (Rhabdovirus (VSV)): 15 µg/mL
- Virus Yield ID50 (Adenovirus (Ad5)): 0.2 µg/mL
- Virus Yield ID90 (Adenovirus (Ad5)): 0.3 µg/mL
- Virus Yield ID50 (Rotavirus (WAG8P1)): 1 µg/mL
- Virus Yield ID90 (Rotavirus (WAG8P1)): 15 µg/mL
- Virus Yield ID50 (Influenza A (PR8)): 1 µg/mL
- Virus Yield ID90 (Influenza A (PR8)): 9 µg/mL
- Virus Yield ID50 (Rhinovirus (RHV-2)): 0.3 µg/mL
- Virus Yield ID90 (Rhinovirus (RHV-2)): 40 µg/mL
- Virus Yield ID50 [1]: 0.5 µg/mL
- Virus Yield ID90 [1]: 5 µg/mL

Source: USRE47786E1, “Haloalkyl heteroaryl benzamide compounds” (Romark Laboratories, L.C., priority 2009, dated 2019)
